# Results as given in PubChem BioAssay AID1347417 (National Center for Advancing Translational Sciences (NCATS), 2020).
# Screen size: about 120,000 compounds; about 5,300 (4.4%) were called active. Inconclusive results, whose numbers are uncertain, are shown with a selection of clear calls. Calls come from the whole dose curve; as a rule, active = well fitted inhibition curve with a large enough effect; inconclusive = small, poorly fitted or top-dose-only effect; inactive = no such curve, though single readings can be large or run the other way. Where the call is inconclusive, the potency comes from a doubtful curve fit.
# Experiment: qHTS Primary assay for Inhibitors of Plasmodium falciparum Dd2 growth in vitro; note: nearly all actives have a fitted effect of over 65% in size;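 for activity, negative = inhibition: plate controls were DMSO vehicle for no effect and reference drug for full effect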
# Details: P. falciparum Dd2 growth, SYBR Green, 72 h; activity, negative = inhibition: at 28.9 µM (top of the series) unless noted; series mostly up to 28.9 µM
# In short: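 Readout: SYBR Green fluorescence, 485 nm excitation, 535 nm emission, after ~16 h lysis at 37C. Before that, Dd2-infected red cells (2.5% hematocrit) grew 72 h with compound, 29 uM top final concentration.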
# Potency is the fitted concentration of half-maximal effect; tags give direction and shape of the fitted curve.
SMILES,Potency,"activity, negative = inhibition"
Cc1noc(C)c1CCCNC(=O)[C@@]12CNC[C@@H]1CN(Cc1ccccc1)C2,"inconclusive: 10 µM [inhibitor, partial curve]",
COc1ccc(C(C)NC(=O)CN2C(=O)NC3(CCC(C)CC3)C2=O)cc1 (centres undefined),inactive,
CCOc1ccccc1NC(=O)c1ccc(F)c(S(=O)(=O)N2CCN(c3ccc(F)cc3)CC2)c1,"inconclusive: 17.8 µM [inhibitor, single point]",
CC[C@H]1CN(C(C)=O)CC[C@H]1CC(=O)NCCOC,inactive,
O=C1NC2(CN(Cc3ccc(F)cc3)C2)Oc2ccccc21,"inconclusive: 1.58 µM [inhibitor, full curve]",
O=C1CC(c2noc(-c3ccc(-c4ccccc4)cc3)n2)CN1c1ccc(F)cc1 (centres undefined),"inconclusive: 20 µM [inhibitor, single point]",
COc1ccc(-c2noc(-c3cccn3CC(=O)NCc3ccc(F)cc3)n2)cc1F,"inconclusive: 12.6 µM [inhibitor, single point]",
COc1cccc(NC(=O)Cn2cc(C(=O)c3ccco3)c3ccccc32)c1,"inconclusive: 10 µM [inhibitor, single point]",
Cc1ccccc1C(=O)N1CCc2nc(C3CC3)nc(-c3ccc(O)cc3)c2CC1,active: 8.91 µM,
CC(C)(C)c1nc(C(=O)N2CCCC2)n2ccncc12,"inconclusive: 7.94 µM [inhibitor, partial curve, poor fit]",
O=C1NCc2ccccc2CC12CCN(Cc1ccc(F)cc1O)CC2,"inconclusive: 11.2 µM [inhibitor, single point]",
CCOc1ccc(CNS(=O)(=O)c2ccc3c(c2)CCCN3C(C)=O)cc1,,inactive: 56.6% [at 5.79 µM]
CN1Cc2ccc(NCc3ccccc3)nc2C(C)(C(=O)NC2CCC2)C1 (centres undefined),active: 3.98 µM,
CS(=O)(=O)c1ccc(CN2CCCC(Cc3nc4ccccc4[nH]3)C2)cc1 (centres undefined),inactive,
CCOC(=O)c1c(S(=O)(=O)N2CCC(C(=O)Nc3ccc(F)cc3F)CC2)c(C)n(C)c1C,"inconclusive: 0.0708 µM [inhibitor, full curve, poor fit]",
CN1CC2(CCN(CCCOc3ccc(C(N)=O)cc3)CC2)OC1=O,inactive,
CCOc1ccc(CN2C(=O)c3ccccc3C2C(=O)NCCc2ccc(OC)c(OC)c2)cc1 (centres undefined),"inconclusive: 20 µM [inhibitor, single point]",
COCC(=O)NC1CCC12CCN(Cc1cccc(F)c1)CC2 (centres undefined),"inconclusive: 12.6 µM [inhibitor, partial curve]",
O=C(c1ccc(Cl)cc1)N1CCN(c2cc(-c3ccc(Cl)cc3)[nH]n2)CC1,inactive,
